In the supplement of paper PMC10126150:
Values marked as one replicate rest on one cluster of the flow cell; about a third of the high ones do not repeat.

System: ATP
Assay: switch fluorescence ratio, 500 uM ATP over buffer (Cy3 cluster intensity, sum of 5 cycles each) (fold (ratio)); higher = stronger signal-on switching upon ATP binding; sequences stand for … in TCGTCGGCAGCGTCAGATGTGTATAAGAGACAGTTTTTTTTTTTTTTTTTTTTTTTTT…TC
Conditions: aptamer strand: ATP DNA aptamer (quencher-CACCTGGGGGAGTATTGCGGAGGAAGG + anchor), 100 nM annealed; ATP concentration: 500 uM; one replicate
In short: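 Clusters carrying Cy3-labelled switching strands on a modified Illumina MiSeq flow-cell were annealed to 100 nM quencher-labelled ATP aptamer and imaged in selection buffer. They were imaged again after 15 min with 500 uM ATP at 22 °C, over five buffer/ATP cycles with NaOH stripping and re-annealing in between. For each cluster, the fluorescence ratio is the summed Cy3 intensity of the target cycles divided by that of the buffer cycles, averaged per switch-domain sequence. Clusters outside 100-1000 RFU were left out.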
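Also: ATP exposure 15 min at 22 °C before imaging.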

TTTGAAAGAC was tested, and the switch fluorescence ratio was 1.31.
TATGGTTAAA was tested, and the switch fluorescence ratio was 1.04.
Sequence GTTCCCCCGT has a switch fluorescence ratio of 1.49.
For AGACACGGCT, the switch fluorescence ratio was 1.06.
For TGACGGAGTT, the switch fluorescence ratio was 1.05.
With GATCACGTAC the switch fluorescence ratio was 1.8.
Sequence GGTTCAGTCG has a switch fluorescence ratio of 1.03.
Sequence TATAGTTTTT has a switch fluorescence ratio of 0.988.
For CACATCTAT, the switch fluorescence ratio was 1.05.
TTATGAATT was tested, and the switch fluorescence ratio was 1.02.
In the case of TAATCGTTGG, the switch fluorescence ratio is reported as 1.09.
For TATACGTGAG, the switch fluorescence ratio was 1.
In the case of GAGCAATACG, the switch fluorescence ratio is reported as 1.85.
CATATGGCAA showed a switch fluorescence ratio of 1.5.
Work on ACGGTACAAG yielded a switch fluorescence ratio of 1.4.
Work on CGGGGTTTCT yielded a switch fluorescence ratio of 0.994.
Sequence TTGGTGGGAG has a switch fluorescence ratio of 0.95.
TTGGATATTA gave a switch fluorescence ratio of 0.998.
GTTAGTTTAA gave a switch fluorescence ratio of 1.02.
In the case of ATTTCCCGTC, the switch fluorescence ratio is reported as 0.98.
AACGAATGTC showed a switch fluorescence ratio of 1.16.
GATCAGCAGG showed a switch fluorescence ratio of 1.02.
Sequence CGCATCTTAG has a switch fluorescence ratio of 1.12.
In the case of CTAGCTATA, the switch fluorescence ratio is reported as 1.13.
Sequence CGTAATTTAA has a switch fluorescence ratio of 1.01.
Sequence AACGATGCGT has a switch fluorescence ratio of 1.05.
GCGTGAATTT was tested, and the switch fluorescence ratio was 1.02.
In the case of CGTTACTACT, the switch fluorescence ratio is reported as 1.04.
For GCGGCCGCAA, the switch fluorescence ratio was 0.991.
In the case of CTGGGACAA, the switch fluorescence ratio is reported as 0.985.
With GCATTAGATA the switch fluorescence ratio was 1.03.
In the case of CGTCATTGTT, the switch fluorescence ratio is reported as 0.98.
With GGGTAATTGC the switch fluorescence ratio was 1.
With TATACATTAA the switch fluorescence ratio was 1.03.
TCGAAAGATC gave a switch fluorescence ratio of 1.04.
Sequence ATGAATTGAC has a switch fluorescence ratio of 1.06.
With ATCAGTGGAC the switch fluorescence ratio was 1.02.
CAACAGGCTG gave a switch fluorescence ratio of 1.04.
For CAGTACTATC, the switch fluorescence ratio was 0.983.
In the case of TAAGGATAAA, the switch fluorescence ratio is reported as 0.972.
Sequence CGAGCCCCGT has a switch fluorescence ratio of 1.02.
CTTCGAGACA was tested, and the switch fluorescence ratio was 1.
Work on CAAATTTAGG yielded a switch fluorescence ratio of 0.996.
ATAGAGGTTT was tested, and the switch fluorescence ratio was 0.987.
Sequence ACGCGAGCGT has a switch fluorescence ratio of 1.01.
Work on TGGGACTCAC yielded a switch fluorescence ratio of 1.13.
GAAAACCTTA was tested, and the switch fluorescence ratio was 1.01.
With GGTTTGCAAC the switch fluorescence ratio was 1.02.
With CCCGGTTTGT the switch fluorescence ratio was 0.982.
Work on CCAGTTCGTT yielded a switch fluorescence ratio of 1.01.
Work on AAAAAACTAG yielded a switch fluorescence ratio of 1.1.
For GCGGTGATTG, the switch fluorescence ratio was 0.992.
Sequence TTGCACGGCG has a switch fluorescence ratio of 1.02.
Sequence ATGGCGGGAT has a switch fluorescence ratio of 0.987.
For ATTCTAGGGT, the switch fluorescence ratio was 0.976.
For TTAGAAAAC, the switch fluorescence ratio was 1.01.
With ACGGACATGC the switch fluorescence ratio was 1.27.
Work on TTGAGATGGG yielded a switch fluorescence ratio of 1.01.
With GTGTTCGTG the switch fluorescence ratio was 1.01.
Sequence TGAAGACATC has a switch fluorescence ratio of 1.02.
Work on GGTGCAAGTG yielded a switch fluorescence ratio of 0.967.
Work on CAAAGGCATC yielded a switch fluorescence ratio of 0.989.
Sequence AATCCAAACT has a switch fluorescence ratio of 1.05.
GTGATTGGAA was tested, and the switch fluorescence ratio was 1.06.
For GCTAGAGCCG, the switch fluorescence ratio was 1.11.
With TGGTACCGGT the switch fluorescence ratio was 1.
Work on TGATTCACTT yielded a switch fluorescence ratio of 1.02.
Work on ACCGCGGGTA yielded a switch fluorescence ratio of 1.08.
GATAGCCCGG gave a switch fluorescence ratio of 1.01.
TCCAATGCA was tested, and the switch fluorescence ratio was 1.21.
Sequence AAGGTTAATC has a switch fluorescence ratio of 0.964.
ATCGAATACG was tested, and the switch fluorescence ratio was 1.02.
GAGTGCTTAT was tested, and the switch fluorescence ratio was 1.03.
GATATCTCCG was tested, and the switch fluorescence ratio was 1.15.
In the case of CGTATCGCAC, the switch fluorescence ratio is reported as 1.52.
GCCGTCAGTG was tested, and the switch fluorescence ratio was 0.986.
ATTATGGATA was tested, and the switch fluorescence ratio was 0.991.
GTGGTGCGGT showed a switch fluorescence ratio of 0.998.
For CACCATCGTA, the switch fluorescence ratio was 1.01.
In the case of TAGAAGGCAC, the switch fluorescence ratio is reported as 1.03.
AGTAAAGGGG gave a switch fluorescence ratio of 0.957.
For ATCGTTTTCG, the switch fluorescence ratio was 0.949.
Sequence TAATTAGGCT has a switch fluorescence ratio of 0.977.
TTAGAATGC was tested, and the switch fluorescence ratio was 0.966.
Sequence TTGTCAATCC has a switch fluorescence ratio of 1.08.
